# From the supplement of paper PMC12217912
# This is one part of the list. Sequences were assembled here from the parent chain. Values near 0.05 are background.
# B1: TEV protease; numbered along this chain (parent)
# chain: MGESLFKGPRDYNPISSSICHLTNESDGHTTSLYGIGFGPFIITNKHLFRRNNGTLVVQSLHGVFKVKDTTTLQQHLVDGRDMIIIRMPKDFPPFPQKLKFREPQREERICLVTTNFQTKSMSSMVSDTSCTFPSGDGIFWKHWIQTKDGQCGSPLVSTRDGFIVGIHSASNFTNTNNYFTSVPKNFMELLTNQEAQQWVSGWRLNADSVLWGGHKVFMVKPEEPFQPVKEATQL
# Variants of: B1
# Experiment: raw area under fraction-flipped curve 0-4 h after induction (AUC4h, not background-subtracted), DNA-recorder readout of cleavage of the substrate (dimensionless); higher = more cleavage of the substrate by the protease variant
# Conditions: temperature: 34 °C; time window: 0-4 h after rhamnose induction
# Procedure: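 In vivo DNA recorder in E. coli TOP10(DE3) ΔrhaA at 34 °C. Each TEVp single-site mutant (parent TEVp 0) is paired with a single-site variant of the 7-mer TEVs (canonical ENLYFQ|S). The substrate sits between flexible linkers in a Bxb1-sfGFP-TEVs-SsrA fusion, so cleavage stabilises Bxb1 and speeds flipping of a recombination array, read by NGS. The value is the raw area under the fraction-flipped curve over 0-4 h after rhamnose induction (AUC4h), with ≥20 reads per time point. It is not background-subtracted; inactive controls average about 0.047.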
# 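Note: Bxb1 expression induced with 0.2% (w/v) L-rhamnose at OD600 near 0.5, cultures sampled hourly, flipped fraction per protease–substrate barcode pair counted by paired-end Illumina sequencing.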
Variant,area with substrate EALYFQS,area with substrate ECLYFQS,area with substrate EFLYFQS,area with substrate EHLYFQS,area with substrate EILYFQS,area with substrate EKLYFQS,area with substrate ELLYFQS,area with substrate EMLYFQS,area with substrate EPLYFQS,area with substrate EQLYFQS,area with substrate ERLYFQS,area with substrate ESLYFQS,area with substrate ETLYFQS,area with substrate EVLYFQS,area with substrate EWLYFQS,area with substrate EYLYFQS,area with substrate EDLYFQS,area with substrate EELYFQS,area with substrate EGLYFQS
M219A,0.0788,0.0899,0.0931,0.11,0.0817,0.115,0.0894,0.102,0.116,0.122,0.0665,0.0875,0.138,0.0875,0.108,0.115,–,–,–
S201D,0.0785,0.0696,0.091,0.0663,0.0518,0.0736,0.0843,0.0764,0.0893,0.084,0.0862,0.0754,–,0.0604,–,0.0715,0.084,0.0832,0.0809
W212V,0.124,0.11,0.122,0.087,0.119,0.134,0.149,0.129,–,0.133,0.158,0.115,–,0.102,0.104,–,0.138,0.145,0.0834
W212E,0.0901,0.0772,–,0.0902,0.0663,–,0.101,0.081,0.0984,0.0535,0.0448,0.0764,–,0.0602,0.11,0.0835,–,–,0.0628
R204I,0.118,0.111,0.103,0.118,0.094,0.0908,0.09,0.1,0.133,0.142,0.116,0.104,0.134,0.109,0.0941,0.123,0.13,0.149,0.0946
V200F,0.0685,–,–,–,–,0.0787,–,0.0823,–,–,–,–,0.0465,0.0318,–,–,–,–,0.0752
V200C,0.0878,0.0948,0.0741,0.0671,0.075,–,0.0745,0.0962,0.102,0.0959,0.0843,0.0786,–,0.0771,0.0839,0.0801,–,–,0.083
A207S,0.105,0.13,0.0978,0.0814,0.117,0.122,0.122,0.121,0.105,0.1,0.104,0.108,–,0.0939,–,0.101,0.13,0.119,0.108
A207M,0.113,0.0885,–,–,0.109,0.128,–,–,–,0.0986,–,0.0945,–,0.135,0.106,–,–,0.121,0.0668
N206F,0.096,0.0852,0.0863,0.0833,0.0822,0.0524,0.073,0.087,0.1,0.0861,0.0831,0.0887,–,0.0902,–,0.0924,0.0828,0.1,0.0867
K221E,0.116,0.0886,0.0873,0.104,0.0723,0.126,0.0859,0.0946,0.115,0.0867,–,0.0957,–,0.06,0.0904,0.0445,0.15,0.0915,0.0768
E224L,0.129,0.0981,0.129,0.0537,–,0.113,0.0946,0.108,0.137,0.0959,–,0.0975,0.0952,–,–,–,0.112,–,0.111
E224I,0.0952,0.105,0.0795,0.0975,0.0963,0.0718,0.105,0.0893,–,–,0.103,0.088,–,0.0698,–,–,–,0.12,–
E224Q,0.0906,0.139,0.111,–,0.0892,0.111,0.0766,0.0795,0.115,–,0.0961,0.0988,0.13,0.123,–,–,–,0.0799,–
E224D,0.125,0.0982,–,–,0.116,–,0.086,0.122,0.142,–,0.103,0.123,0.101,–,–,0.105,–,0.0895,0.102
E223L,0.0965,0.0856,0.104,0.0756,0.103,0.0854,0.0801,0.0809,0.094,0.107,0.0818,0.083,0.0883,0.0856,–,–,0.122,0.099,0.0844
Q234G,0.159,–,–,0.12,0.0873,0.105,0.108,0.0593,–,–,0.106,–,–,0.0951,0.106,0.0958,0.146,–,–
W199G,0.0348,0.101,–,0.0545,0.0625,–,–,–,0.0511,0.064,0.0573,0.0621,–,0.0676,–,0.0652,0.078,–,0.0607
G8W,–,0.0945,–,–,–,0.106,0.0581,0.119,0.102,0.0985,–,–,–,0.0702,0.104,0.118,–,0.0858,–
G8I,–,0.0928,–,0.0682,–,0.1,–,–,–,0.107,0.101,–,–,0.0701,–,–,–,–,0.0833
V217W,0.0535,–,–,–,–,–,0.0615,0.0604,0.0641,0.066,0.0684,0.0639,–,–,0.0635,0.0627,–,0.0672,–
N24G,–,0.0711,0.0538,0.0693,0.0681,0.0667,0.0613,0.0606,0.101,0.0728,0.0685,0.0633,0.0686,0.0595,0.056,–,0.0825,0.071,0.0571
N24P,–,0.0584,0.0661,0.0494,–,0.0742,0.0524,0.0538,0.0533,0.0385,0.0562,0.0602,–,0.0546,0.0757,0.0476,0.063,0.0389,–
T31Q,–,0.111,0.0754,–,0.0479,0.074,–,–,0.118,0.0987,0.0845,0.087,0.114,0.0762,–,–,–,0.108,–
V210Y,0.118,–,–,0.0968,0.0768,–,0.0791,–,0.0981,0.102,0.0784,0.0954,0.0896,0.0798,0.0904,0.0955,0.137,0.0963,–
E25I,–,0.111,0.135,–,0.0812,0.133,0.111,0.095,0.081,0.129,0.104,0.115,0.218,0.0965,0.098,0.0934,–,0.0799,0.0753
